# Reference: the supplement of paper PMC3334620
# Whole data set: some 33,000 sequences, median “E-score (-0.5 to 0.5)” near -0.043, cut for the highest 2% near 0.37. The list shows a part of the results.
# Biological target: T1, Upc2 (UniProt Q12151)
# T1 sequence: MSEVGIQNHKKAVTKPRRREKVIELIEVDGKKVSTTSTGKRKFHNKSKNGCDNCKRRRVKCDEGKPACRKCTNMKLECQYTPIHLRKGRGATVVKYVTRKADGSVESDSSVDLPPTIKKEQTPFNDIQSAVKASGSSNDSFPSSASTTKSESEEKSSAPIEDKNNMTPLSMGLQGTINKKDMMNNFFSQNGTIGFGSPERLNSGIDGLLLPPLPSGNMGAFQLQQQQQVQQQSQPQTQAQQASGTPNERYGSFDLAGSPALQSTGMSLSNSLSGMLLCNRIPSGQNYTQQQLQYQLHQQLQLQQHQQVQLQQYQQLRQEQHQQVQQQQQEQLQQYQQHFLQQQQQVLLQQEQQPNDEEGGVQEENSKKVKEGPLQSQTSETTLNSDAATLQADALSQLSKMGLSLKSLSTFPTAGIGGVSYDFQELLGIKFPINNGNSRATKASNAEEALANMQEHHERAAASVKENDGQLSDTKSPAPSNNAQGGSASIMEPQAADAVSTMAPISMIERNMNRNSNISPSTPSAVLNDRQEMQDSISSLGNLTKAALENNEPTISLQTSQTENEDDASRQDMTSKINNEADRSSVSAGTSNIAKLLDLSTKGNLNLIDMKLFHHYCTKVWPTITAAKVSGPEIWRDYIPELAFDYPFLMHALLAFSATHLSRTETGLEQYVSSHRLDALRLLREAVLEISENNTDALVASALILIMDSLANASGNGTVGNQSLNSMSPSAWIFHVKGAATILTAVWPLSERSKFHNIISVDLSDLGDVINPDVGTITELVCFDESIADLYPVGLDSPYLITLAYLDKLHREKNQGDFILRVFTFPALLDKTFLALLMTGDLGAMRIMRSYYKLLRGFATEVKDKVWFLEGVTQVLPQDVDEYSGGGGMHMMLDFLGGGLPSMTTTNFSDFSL
# Assay: PBM E-score (8-mer binding enrichment) (E-score (-0.5 to 0.5)); higher = stronger / more preferred TF binding; most listed sequences are background and not binding sites
# Settings: protein concentration: 200 nM; construct: GST-full length
# Outline: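 Using PURExpress in vitro transcription/translation, GST-tagged yeast transcription factors were made in full-length or DNA-binding-domain form. These were applied at about 100-200 nM to double-stranded universal all-10-mer Agilent arrays, and bound protein was detected with fluorescent anti-GST. Scans were normalised with masliner before the Universal PBM Analysis Suite assigned E-scores to ungapped eight-base words pooled with their reverse complements.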
row,Sequence,PBM E-score
1,ATTATAGA,0.0585
2,CACTTAGG,-0.0903
3,CGGTTACG,0.34
4,CTCTTCGC,-0.12
5,CAGGGGAG,-0.215
6,AGGGTTCC,-0.109
7,ACAATAAC,-0.0383
8,CCGGCGAC,-0.211
9,GCAACTCA,-0.0869
10,CTACCCAG,-0.184
11,CCGCATCC,-0.0625
12,TAGCCTGA,-0.0528
13,CTGAAGCA,-0.189
14,ACAAAAGG,-0.00334
15,ACTAGAAC,0.0839
16,ACTTGCCA,-0.165
17,CTCATAGC,-0.119
18,AGGGGGAT,-0.156
19,GAATTTTA,0.0127
20,ATGTGAGG,-0.0218
21,CCACAGAA,0.0391
22,GAAAACGC,0.0704
23,ATTGGGTA,-0.00791
24,AATCGCAC,0.00377
25,AACACGAT,0.0205

row,Sequence,PBM E-score
1,ATTTATTC,0.107
2,GGTACATA,-0.0297
3,GATCGATA,0.0839
4,AGAGTCAT,-0.205
5,GCGCGTTA,0.191
6,AGCGTCAA,-0.111
7,ATTGACGC,-0.125
8,ACTTCGAA,0.132
9,ACCCCCAC,-0.367
10,TAAGGGGA,-0.157
11,ATAACAAT,-0.126
12,ATCATCGG,-0.104
13,AAGGACCA,-0.0722
14,ATATCGCA,-0.0659
15,AGCGGGAT,-0.032
16,CAGTATCC,-0.0132
17,CGGATAAC,0.0993
18,GAACCGAC,0.234
19,GGGCGCAC,-0.173
20,CTCCCTAC,-0.13
21,CGTGGTCA,-0.227
22,ATAAAATG,0.0962
23,AATATTAC,0.192
24,ACTCTGGC,-0.202
25,GGAGACTA,-0.181

row,Sequence,PBM E-score
1,ATTTCATG,-0.244
2,GATATGGC,-0.305
3,CCGGGAGG,-0.261
4,CGAAATGA,0.1
5,CAGAAGGC,-0.152
6,CTGTTGGA,-0.173
7,AGACAGAA,0.0179
8,ATTGAGTA,0.0353
9,GGAAGAGA,-0.194
10,CCGCCAGC,-0.228
11,GAACGTCA,-0.137
12,CGGTATTA,-0.0185
13,ACAGATGG,-0.274
14,AGGATGAC,-0.0854
15,ATGGTCGA,0.0473
16,ACACGTGT,0.188
17,TACACTAA,-0.033
18,ACATCACG,0.0904
19,ACCGCCCC,0.156
20,ATGAGATG,-0.243
21,CCCCGCTC,-0.142
22,ACGGTCCA,0.0906
23,CGATCAAC,0.194
24,GCTATATA,0.0781
25,GTCTGCAC,-0.298

row,Sequence,PBM E-score
1,AGCTTAAG,-0.141
2,AAAGAGCC,-0.135
3,ATGGCCTG,-0.376
4,CTTTGCTC,-0.0159
5,TAGCTGAA,0.0815
6,CAGTCCTA,-0.227
7,CAGCGATG,-0.138
8,GAGTTGAC,0.0207
9,GAGCCAAC,-0.0768
10,ACCGGACT,-0.059
11,AACTAGGC,-0.0956
12,CGCTTCCG,0.132
13,AGTTCCCG,0.0353
14,AGCAAGAA,-0.16
15,GGGTTTGA,0.0184
16,ATTTCGGA,0.0761
17,GTGTGTCA,0.0729
18,GGACACGA,0.106
19,CATCAGAA,-0.0155
20,GAAACCCC,-0.198
21,AGGGCTGC,-0.205
22,CGACAACG,0.272
23,AACTGCGG,-0.016
24,ATTAACGA,0.424
25,AATAGAGG,-0.0358

row,Sequence,PBM E-score
1,CCGCCGAG,-0.0609
2,ATCTTACG,0.287
3,AAGTTTGG,0.00199
4,CTGGAGGC,-0.31
5,AGTTTATC,0.115
6,CTTTGCCA,-0.0739
7,ATTGCGGC,-0.13
8,ATTATCTG,-0.0234
9,ACCGCAAA,0.134
10,ATTCGGGA,-0.048
11,CCATCGTA,0.44
12,AATTCTTA,0.0248
13,CCCGGGAA,0.0107
14,GACAGACA,0.0541
15,AACATGTC,0.0334
16,CCGTCCGA,-0.162
17,ACACGTCC,-0.166
18,CATTGACG,0.00015
19,CCGTAGCA,0.0702
20,GAACGAAA,0.416
21,AGGTTAAC,0.11
22,CCAGTGGG,-0.282
23,GGTACTTA,-0.191
24,ACCTTTGC,-0.0579
25,ATAGAGTC,-0.0367

row,Sequence,PBM E-score
1,AAATCGCT,0.033
2,CAGTAGCC,-0.159
3,AAGATCGC,0.148
4,CCGGGAAG,-0.202
5,AGAGTATG,-0.00032
6,CGATACAG,0.0338
7,CCAATTTC,-0.019
8,AGGTGCAA,-0.111
9,GTCGAGAA,-0.0479
10,GGAAATCA,0.0219
11,CCCCAAAG,-0.154
12,ATGGACAG,-0.334
13,ATATCTCC,-0.103
14,GTGAAGAA,0.0736
15,AGACCAAT,-0.0887
16,AGGGCGGG,0.00785
17,TACTTGAA,0.0955
18,GCAGTACA,-0.155
19,CAACGAAG,0.235
20,AGCGTACT,0.0261
21,AAGGCCAG,-0.182
22,CTACCAAG,-0.172
23,ATATGTTG,-0.0893
24,CATCGGCA,-0.0792
25,CATCTTGG,-0.305

row,Sequence,PBM E-score
1,AGTGATAT,0.132
2,CGAAGTAC,0.204
3,GAAGGGGC,-0.219
4,TGAGAACA,-0.263
5,GGATTACA,-0.201
6,ACACACAC,0.0448
7,CGAGAATA,0.167
8,ACTTATAG,0.11
9,AAGCGAGT,0.319
10,ATTAAAAG,0.101
11,ATAAAGAC,-0.0679
12,ATCCGCTC,0.139
13,AAACGCGA,0.337
14,GTCGCGTA,0.326
15,ATCGCCAT,-0.0336
16,ATGACAAG,-0.146
17,GAGCCTTA,-0.0515
18,GACTTGGC,-0.0943
19,CGTCGGCC,-0.159
20,AATACTAT,-0.241
21,CGCGGGGA,-0.0478
22,ACCCGTAA,0.24
